# In the supplement of paper PMC10037445:
# Values joined by “and” are separate entries in the source; they are usually repeats but may differ in a detail not shown here. Identical values can stand only once. The full ranking holds about 2,900 compounds; the median of “NF-kB SEAP reporter activity, fold change vs agonist alone” is about 0.99, and the highest 2% start at about 2.6. The list shows a part of the results.
# Experiments:
# [1] = system: RAW-Dual; assay: NF-kB SEAP reporter activity, fold change vs agonist alone; cytotoxicity flag (confluency mask): not cytotoxic; higher = enhanced NF-kB activity
# In short: (§1)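 Library stock was pin-tooled at 50 nL into 384-well plates of RAW-Dual macrophages (50,000 cells/well, DMEM), followed 1 h later by a PRR agonist, and the cells were kept at 37 °C, 5% CO2. Supernatant collected after 20 hours was read for IRF by QuantiLuc luminescence and for NF-κB by QuantiBlue absorbance at 620 nm. Reporter activity is fold change over agonist-alone wells, and a well counted as cytotoxic when its IncuCyte confluency was below 70% of agonist controls in both mask sets.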
# [2] = system: RAW-Dual; assay: NF-kB SEAP reporter activity, fold change vs agonist alone; higher = enhanced NF-kB activity; settings: library stock concentration (final ~1000-fold dilution): 10 mM
# In short: as §1
# [3] = system: RAW-Dual; assay: NF-kB SEAP reporter activity, fold change vs agonist alone; cytotoxicity flag (confluency mask): cytotoxic (confluency <70% of control); higher = enhanced NF-kB activity
# In short: as §1
# [4] = agonist: ODN 1826 (TLR9) 0.5 ug/mL
# [5] = agonist: Pam2CSK4 (TLR2/6) 0.1 ug/mL
# [6] = agonist: Pam3CSK4 (TLR2/1) 0.1 ug/mL
# [7] = cytotoxicity flag (confluency mask): not cytotoxic, agonist: Imiquimod (TLR7) […]
# [8] = cytotoxicity flag (confluency mask): not cytotoxic, agonist: MPLA (TLR4) […]
compound,measurement,setting,value
C=C1CCC2C(C)(CO)C(O)CC[C@@]2(C)[C@@H]1C/C=C1/C(=O)OCC1O (some centres not stated) (library stock concentration (final ~1000-fold dilution): 10 mM),NF-kB SEAP reporter activity,[1]; agonist: LPS (TLR4) 0.1 ug/mL,0.32
same,NF-kB SEAP reporter activity,[1]; [4],0.206
same,NF-kB SEAP reporter activity,[1]; [5],0.0769
same,NF-kB SEAP reporter activity,[1]; [6],0.161
C=C1CCC2C(C)(CO)C(O)CC[C@@]2(C)[C@@H]1C/C=C1/C(=O)OCC1O (some centres not stated),NF-kB SEAP reporter activity,[2]; [7],0.287
same,NF-kB SEAP reporter activity,[2]; [8],0.305
O=c1cc(-c2ccc(O)cc2)oc2cc(O)ccc12,NF-kB SEAP reporter activity,[2]; [7],1.18
same,NF-kB SEAP reporter activity,[2]; [8],1.35
O=c1cc(-c2ccc(O)cc2)oc2cc(O)ccc12 (library stock concentration (final ~1000-fold dilution): 10 mM),NF-kB SEAP reporter activity,[1]; agonist: LPS (TLR4) 0.1 ug/mL,1.57
same,NF-kB SEAP reporter activity,[1]; [4],1.18
same,NF-kB SEAP reporter activity,[1]; [5],0.728
same,NF-kB SEAP reporter activity,[1]; [6],0.927
CC1(C)CNc2cc(NC(=O)c3cccnc3NCc3ccncc3)ccc21 (library stock concentration (final ~1000-fold dilution): 10 mM),NF-kB SEAP reporter activity,[1]; agonist: LPS (TLR4) 0.1 ug/mL,1.52 and 1.16
same,NF-kB SEAP reporter activity,[1]; [4],0.467 and 0.857
same,NF-kB SEAP reporter activity,[1]; [5],0.615 and 0.59
same,NF-kB SEAP reporter activity,[1]; [6],0.484 and 0.66
CN(C/C=C/C#CC(C)(C)C)Cc1cccc2ccccc12.Cl,NF-kB SEAP reporter activity,[2]; [7],1.56
same,NF-kB SEAP reporter activity,[2]; [8],2.08
CN(C/C=C/C#CC(C)(C)C)Cc1cccc2ccccc12.Cl (library stock concentration (final ~1000-fold dilution): 10 mM),NF-kB SEAP reporter activity,[1]; agonist: LPS (TLR4) 0.1 ug/mL,3.51
same,NF-kB SEAP reporter activity,[1]; [4],0.849
same,NF-kB SEAP reporter activity,[1]; [5],0.948
same,NF-kB SEAP reporter activity,[1]; [6],1.3
O=C1Cc2c([nH]c3ccc(Br)cc23)-c2ncccc2N1,NF-kB SEAP reporter activity,[2]; [7],1.54
same,NF-kB SEAP reporter activity,[2]; [8],2.06
O=C1Cc2c([nH]c3ccc(Br)cc23)-c2ncccc2N1 (library stock concentration (final ~1000-fold dilution): 10 mM),NF-kB SEAP reporter activity,[1]; agonist: LPS (TLR4) 0.1 ug/mL,1.5
same,NF-kB SEAP reporter activity,[1]; [4],2.36
same,NF-kB SEAP reporter activity,[1]; [5],1.36
same,NF-kB SEAP reporter activity,[1]; [6],1.84
COc1ccc2cc(OCC3(C(=O)O)CN(C(=O)c4ccc(F)cc4)C3)ccc2c1 (library stock concentration (final ~1000-fold dilution): 10 mM),NF-kB SEAP reporter activity,[1]; agonist: LPS (TLR4) 0.1 ug/mL,1.16
same,NF-kB SEAP reporter activity,[1]; [4],0.961
same,NF-kB SEAP reporter activity,[1]; [5],1
same,NF-kB SEAP reporter activity,[1]; [6],0.995
COc1ccc2cc(OCC3(C(=O)O)CN(C(=O)c4ccc(F)cc4)C3)ccc2c1,NF-kB SEAP reporter activity,[2]; [7],0.937
same,NF-kB SEAP reporter activity,[2]; [8],1.07
COCCn1c2c([n+](Cc3cnccn3)c1C)C(=O)c1ccccc1C2=O (library stock concentration (final ~1000-fold dilution): 10 mM),NF-kB SEAP reporter activity,[3]; agonist: LPS (TLR4) 0.1 ug/mL,0.238
same,NF-kB SEAP reporter activity,[3]; [4],1.22
same,NF-kB SEAP reporter activity,[3]; [5],0.377
same,NF-kB SEAP reporter activity,[3]; [6],0.161
COCCn1c2c([n+](Cc3cnccn3)c1C)C(=O)c1ccccc1C2=O,NF-kB SEAP reporter activity,"[2]; cytotoxicity flag (confluency mask): cytotoxic (confluency <70% of control), agonist: Imiquimod (TLR7) […]",0.201
same,NF-kB SEAP reporter activity,"[2]; cytotoxicity flag (confluency mask): cytotoxic (confluency <70% of control), agonist: MPLA (TLR4) […]",0.182
Cc1cc(-c2ccc(CC(=O)Nc3ccc(-c4cccnc4)cc3)cc2)ccn1 (library stock concentration (final ~1000-fold dilution): 10 mM),NF-kB SEAP reporter activity,[1]; agonist: LPS (TLR4) 0.1 ug/mL,1.7
same,NF-kB SEAP reporter activity,[1]; [4],1.32
same,NF-kB SEAP reporter activity,[1]; [5],1
same,NF-kB SEAP reporter activity,[1]; [6],1.19
Cc1cc(-c2ccc(CC(=O)Nc3ccc(-c4cccnc4)cc3)cc2)ccn1,NF-kB SEAP reporter activity,[2]; [7],1.08
same,NF-kB SEAP reporter activity,[2]; [8],1.26
O=C(NC1=CC(=O)[C@H]2O[C@H]2[C@H]1O)c1ccccc1O (library stock concentration (final ~1000-fold dilution): 10 mM),NF-kB SEAP reporter activity,[1]; agonist: LPS (TLR4) 0.1 ug/mL,0.727
same,NF-kB SEAP reporter activity,[1]; [4],0.951
same,NF-kB SEAP reporter activity,[1]; [5],0.806
same,NF-kB SEAP reporter activity,[1]; [6],0.551
O=C(NC1=CC(=O)[C@H]2O[C@H]2[C@H]1O)c1ccccc1O,NF-kB SEAP reporter activity,[2]; [7],1
same,NF-kB SEAP reporter activity,[2]; [8],1.08
